# Experimental data from PubChem BioAssay AID1461 (National Center for Advancing Translational Sciences (NCATS), 2008).
# The whole screen tested about 220,000 compounds, of which about 2,300 (1%) were called active. The shares of active, inactive and inconclusive entries below differ from those in the screen. The call rests on the fitted dose curve; in most records, active means well fitted inhibition curve with a large enough effect; inconclusive means small, poorly fitted or top-dose-only effect, or effect the other way; inactive means no such curve, though single readings can be large or run the other way. No potency is given beside an inconclusive call; the fits are too rough.
# Molecular target: Neuropeptide S receptor (Homo sapiens) (UniProt Q6W5P4)
# Experiment: qHTS Assay for Antagonists of the Neuropeptide S Receptor: cAMP Signal Transduction; further: nearly all actives have a fitted effect of over 50% in size
# Settings: CHO-NPSR cells, cAMP TR-FRET, antagonist mode; activity change, negative = inhibition: at 38.3 µM (top of the series) unless noted
# On the % scale 0 is the no-effect control and ±100 the full control effect; potency means the concentration at half of the fitted maximal effect; tags describe the fitted curve by direction and shape.
# Sequence of UniProt Q6W5P4 (Q6W5P4 whole entry, looked up): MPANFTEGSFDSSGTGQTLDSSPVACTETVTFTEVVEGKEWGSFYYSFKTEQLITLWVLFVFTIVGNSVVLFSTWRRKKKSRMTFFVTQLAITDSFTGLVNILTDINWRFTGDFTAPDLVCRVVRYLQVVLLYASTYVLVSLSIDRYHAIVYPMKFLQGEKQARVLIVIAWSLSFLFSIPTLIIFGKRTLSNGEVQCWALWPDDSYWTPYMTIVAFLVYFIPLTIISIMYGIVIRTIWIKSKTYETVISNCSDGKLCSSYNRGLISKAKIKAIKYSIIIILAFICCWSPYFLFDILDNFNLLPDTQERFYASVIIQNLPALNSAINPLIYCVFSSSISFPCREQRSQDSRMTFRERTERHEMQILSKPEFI
SMILES,Potency,"activity change, negative = inhibition"
CCOC(=O)c1c(C)n(Cc2ccccc2)c2ccc(OCC(O)CN3C(=O)CNC3=O)cc12 (stereo not drawn),"inconclusive [inhibitor, partial curve]",
NC(=O)c1ccc(C(=O)Nc2ccc([As](=O)(O)O)cc2)cc1,,inactive: -15.2%
CC(C)=CCc1c(O)cc2c(c1O)C(=O)CC(c1ccc(O)cc1)O2 (stereo not drawn),"inconclusive [inhibitor, single point]",
CCc1ccc(N2C(=O)NC(=O)/C(=C\C=C\c3ccco3)C2=O)cc1,active: 10 µM,
C=CCOc1ccc(CC2C(=O)N(C)C(=O)N(C)C2=O)cc1,,inactive: -16.3% [at 46.1 µM]
O=[N+]([O-])c1ccc2nc(N3CCNCC3)ccc2c1,"inconclusive [inhibitor, single point]",
CC(C)n1c(O)c(C2c3cc(Cl)ccc3Oc3[nH]c(=O)n(C(C)C)c(=O)c32)c(=O)[nH]c1=O (stereo not drawn),"inconclusive [activator, partial curve]",
COCCCn1c(N)c(C(=O)Nc2ccccc2)c2nc3ccccc3nc21,"inconclusive [inhibitor, single point]",
CC1(CCl)CN1S(=O)(=O)c1ccccc1 (stereo not drawn),"inconclusive [inhibitor, single point]",
CN1C(=O)NC(=O)/C(=C\C=C\c2ccccc2[N+](=O)[O-])C1=O,active: 10 µM,
COc1cc(/C=C/[N+](=O)[O-])ccc1O,"inconclusive [inhibitor, single point]",
O=c1c2ccccc2nc(-c2ccoc2)n1-c1ccccc1Cl,,inactive: -20.6% [at 46.1 µM]
COc1cc(/C=C2\C(=O)NC(=O)N(c3ccccc3)C2=O)cc(OC)c1OC,,inactive: -5.89% [at 46.1 µM]
Cc1cc(OC(=O)N(C)C)nc(SCc2c(Cl)cccc2Cl)n1,"inconclusive [activator, single point]",
Cc1[nH]n(-c2ccccc2)c(=O)c1C(c1ccc([N+](=O)[O-])cc1)c1c(C)[nH]n(-c2ccccc2)c1=O,"inconclusive [inhibitor, single point]",
CC(Oc1ccc(Cl)cc1Cl)C(=O)Nc1ccc(S(=O)(=O)Nc2cnc3ccccc3n2)cc1 (stereo not drawn),"inconclusive [inhibitor, single point]",
CN(C)CC1Oc2ccccc2OC1(O)c1ccccc1 (stereo not drawn),"inconclusive [inhibitor, single point]",
CN(CC(=O)Nc1ccccc1-c1ccccc1)C1CCCCC1,"inconclusive [inhibitor, single point]",
CCCCCCCSc1cc(OC)c(CCNC)cc1OC,"inconclusive [inhibitor, single point]",
C[C@H](N)CN1CCc2ccc(Br)cc21,"inconclusive [inhibitor, single point]",
CCOc1cccc(=NC2CCCCC2)c2c(C)n(C)c(C)c12,active: 7.94 µM,
CC1Oc2cc3c(-c4c(O)cc(O)c5c(O)c6c(cc45)OC(C)C(C)C6=O)c(O)cc(O)c3c(O)c2C(=O)C1C (stereo not drawn),"inconclusive [activator, partial curve]",
CCN(CC)S(=O)(=O)c1ccc(NN=C(C#N)C#N)cc1,,inactive: -54.6%

SMILES,Potency,"activity change, negative = inhibition"
Fc1ccc(CN2CCN(c3ccc(Cl)cc3)CC2)cc1,,inactive: -7.75%
O=C(N/N=C/c1c(O)n(C2CC2)c(=S)[nH]c1=O)c1ccccc1O,"inconclusive [activator, full curve, poor fit]",
O=Cc1cn(Cc2cccc([N+](=O)[O-])c2)c2ccccc12,,inactive: -9.1%
O=C(c1ccccc1F)c1cn(Cc2ccccc2)c2ccccc12,"inconclusive [inhibitor, single point]",
O=C1NC(=O)N(Cc2ccco2)C(=O)/C1=C/c1ccc(-c2cccc([N+](=O)[O-])c2)o1,"inconclusive [inhibitor, single point]",
CCN1CCN(Cc2ccccc2C)CC1,,inactive: -4.62% [at 46.1 µM]
N#Cc1ccc(Cn2cc(C(=O)c3ccco3)c3ccccc32)cc1,"inconclusive [inhibitor, partial curve]",
CC1(C)CC(N(CCc2ccccc2)Cc2ccccc2)CCO1 (stereo not drawn),"inconclusive [inhibitor, single point]",
[O-]/[N+](=C/c1cccnc1)c1ccc(Br)cc1,"inconclusive [inhibitor, single point]",
Cc1cccn2c(=O)c3c(nc12)N1CCC(Cc2ccccc2)CC1C1(C3)C(=O)N(C)C(=O)N(C)C1=O (stereo not drawn),"inconclusive [inhibitor, single point]",
COCCOC(=O)c1c(N)n(Cc2ccc(OC)cc2)c2nc3ccccc3nc12,"inconclusive [inhibitor, single point]",
Cc1cccc(N2C(=O)NC(=O)/C(=C\c3cccn3-c3ccc(Cl)cc3)C2=O)c1,"inconclusive [inhibitor, partial curve]",
Cc1cc(C=C2C(=O)N(C)C(=S)N(C)C2=O)c(C)n1C1CCCC1,"inconclusive [inhibitor, single point]",
O=C1NS(=O)c2cc([N+](=O)[O-])cc([N+](=O)[O-])c21 (stereo not drawn),,inactive: 10.4%
CCOP(=O)(c1ccccc1)c1nc(-c2ccc(F)cc2)oc1N1CCCCC1 (stereo not drawn),"inconclusive [inhibitor, partial curve]",
CC(=Nc1ccc2c(c1)CCC2)c1c(O)n(-c2ccccc2)c(=O)[nH]c1=O,"inconclusive [inhibitor, single point]",
CC(N)Cc1c[nH]c2cc3c(cc12)OCCO3 (stereo not drawn),"inconclusive [inhibitor, partial curve]",
NCCc1c[nH]c2ccc(O)cc12,"inconclusive [inhibitor, single point]",
O=C(c1cc2nc(-c3ccccc3)cc(-c3ccccc3)n2n1)N1CCC2(CC1)OCCO2,"inconclusive [inhibitor, single point]",
CCOc1ccc(Cc2c(O)[nH]c(=O)[nH]c2=O)cc1,,inactive: 2.59% [at 46.1 µM]
O=c1[nH]c(O)c(N=Nc2ccc(S(=O)(=O)N3CCOCC3)cc2)c(=O)[nH]1,,inactive: 12.5%
COc1ccc(/C=C/C(=O)c2c(O)n(CCC3=CCCCC3)c(=O)[nH]c2=O)cc1OC,"inconclusive [inhibitor, single point]",
Cc1cc(C)nc(N2Cc3ccccc3C2=N)n1,,inactive: -5.4%

SMILES,Potency,"activity change, negative = inhibition"
COc1ccc2c(c1)/C(=C/c1cnc[nH]1)C(=O)N2,"inconclusive [inhibitor, partial curve]",
O=c1[nH]c(=S)n(C2CC2)c(O)c1C=Nc1cccc(C(F)(F)F)c1,"inconclusive [activator, single point]",
Nc1c(C(=O)NCc2ccco2)c2nc3ccccc3nc2n1Cc1ccc(F)cc1,active: 10 µM,
COCCCNC(=O)c1c(NC(=O)c2ccco2)n(Cc2ccccc2)c2nc3ccccc3nc12,active: 12.6 µM,
Cc1nc2c(=O)n(C)c(=O)nc-2n(C)n1,"inconclusive [inhibitor, partial curve, poor fit]",
Cc1nc2nc(C)c(CCC(=O)N3CCC4(CC3)OCCO4)c(C)n2n1,"inconclusive [inhibitor, partial curve]",
O=C(c1cc(C(=O)NCc2ccccc2)c(=O)n(Cc2ccccc2)c1)c1cc(Br)ccc1O,,inactive: -24.1%
COc1ccc(CN2CCCC(C(=O)c3sccc3C)C2)cc1O (stereo not drawn),,inactive: 5.49%
O=C1NC(=S)NC(=O)C1=Cc1cccn1-c1ccc(O)cc1,"inconclusive [inhibitor, single point]",
O=C1C(=O)c2ccccc2-c2ccccc21,active: 3.16 µM,
CCOCCCn1c(N)c(C(=O)Nc2sc3c(c2C(=O)OC)CCCC3)c2nc3ccccc3nc21,"inconclusive [inhibitor, single point]",
C=C1C(=O)O[C@@H]2C[C@@H](C)[C@@H]3C=CC(=O)[C@@]3(C)[C@@H](OC(=O)CC(=O)O[C@H]3[C@@H]4C(=C)C(=O)O[C@@H]4C[C@@H](C)[C@@H]4C=CC(=O)[C@]43C)[C@H]12,"inconclusive [inhibitor, full curve, poor fit]",
O=C(CCS(=O)(=O)c1ccc(Br)cc1)N1CCC2(CC1)OCCO2,,inactive: -3.16% [at 46.1 µM]
CCC(=NCCO)c1c(O)n(-c2ccc(Cl)cc2)c(=O)[nH]c1=O,"inconclusive [inhibitor, single point]",
CCN1C(=O)C(=Cc2ccc(N3CCOCC3)o2)C(=O)N(CC)C1=S,"inconclusive [inhibitor, single point]",
CC(C)C(=O)N1CCC(CN=Cc2c(O)n(C3CCCCC3)c(=O)n(C3CCCCC3)c2=O)CC1,"inconclusive [inhibitor, partial curve]",
CN(C)C(=S)SSC(=S)N(C)C,"inconclusive [inhibitor, full curve, poor fit]",
Cc1ccc(C)c(Cn2c(C(=O)O)c(C=O)c3ccccc32)c1,,inactive: -13%
Cc1cc(C=C2C(=O)NC(=S)NC2=O)c(C)n1-c1ccc2c(c1)OCO2,active: 12.6 µM,
O=C(Oc1ccc(Cl)c2ccccc12)N1CCCCC1,"inconclusive [inhibitor, single point]",
COC(=O)C1C2c3ccccc3OC1(C)N=c1s/c(=C/c3cnn(C)c3)c(=O)n12 (stereo not drawn),"inconclusive [inhibitor, full curve, poor fit]",
CC1(C(=O)O)C2CCC(O2)C1(C)C(=O)O (stereo not drawn),"inconclusive [inhibitor, partial curve, poor fit]",
